In patent US7592316B2, “Peptides as NS3-serine protease inhibitors of hepatitis C virus” (Schering Corporation, priority 2000, dated 2009):

biological target: HCV NS3/NS4A protease (strain 1a) (Hepatitis C virus genotype 1a, UniProt P27958); assay: biochemical; conditions: Table 5; HCV NS3/NS4A protease, 30° C., pH 6.5; read-out: Ki* Range

Row | Ki | Compound
1 | 1 to 100 nM | C=CCCC(NC(=O)[C@@H]1[C@@H]2[C@H](CN1C(=O)[C@@H](NC(=O)NC(C)(C)C)C1CCCCC1)C2(C)C)C(=O)C(=O)NCCS(=O)(=O)Cc1ccccc1 (some centres unmarked)
2 | 1 to 100 nM | C=CCCC(NC(=O)[C@@H]1[C@@H]2[C@H](CN1C(=O)[C@@H](NC(=O)OC(C)(C)C)C1CCCCC1)C2(C)C)C(=O)C(=O)NCCC(=O)NC(C)(C)C (some centres unmarked)
3 | 1 to 100 nM | C=CCCNC(=O)C(=O)C(CCC=C)NC(=O)[C@@H]1[C@H]2[C@@H](CN1C(=O)C(NC(=O)NC(C)(C)C)C1CCCCC1)C2(Cl)Cl (some centres unmarked)
4 | 101 to 1000 nM | CCCC(NC(=O)[C@@H]1[C@@H]2[C@H](CN1C(=O)[C@@H](NC(=O)OC(C)(C)C)C(C)(C)C)C2(C)C)C(=O)C(=O)NCCS(=O)(=O)c1ccccc1 (some centres unmarked)

same assay, conditions: Table 5; HCV NS3/NS4A protease, spectrophotometric assay, 30° C., pH 6.5; read-out: Ki* Range

Row | Ki | Compound
5 | 101 to 1000 nM | C=CCC(NC(=O)[C@@H]1[C@H]2[C@@H](CN1C(=O)[C@@H](NC(=O)OC(C)(C)C)C(C)(C)C)C2(C)C)C(=O)C(=O)NCC(=O)NC(C)c1ccc(C)cc1 (some centres unmarked)
6 | > 1000 nM | C=CCNC(=O)C(=O)C(CCC)NC(=O)[C@@H]1[C@H]2[C@@H](CN1C(=O)[C@@H](NC(=O)C(C)(C)C)C1Cc3ccccc3C1)C2(C)C (some centres unmarked)
7 | 1 to 100 nM | CC1(NC(=O)N[C@H](C(=O)N2C[C@H]3[C@@H]([C@H]2C(=O)NC(CC2CC2)C(=O)C(N)=O)C3(C)C)C(C)(C)C)CC1 (some centres unmarked)
8 | 101 to 1000 nM | CCCC(NC(=O)[C@@H]1[C@@H]2[C@H](CN1C(=O)[C@@H](NC(=O)OC(C)C)C1Cc3ccccc3C1)C2(C)C)C(=O)C(N)=O (some centres unmarked)
9 | > 1000 nM | CCCC(NC(=O)[C@@H]1[C@@H]2[C@H](CN1C(=O)[C@@H](NC(=O)[C@H](CC(C)C)NS(C)(=O)=O)C(C)(C)C)C2(C)C)C(=O)C(=O)OC (some centres unmarked)
10 | 101 to 1000 nM | C=CCCC(NC(=O)[C@@H]1[C@@H]2[C@H](CN1C(=O)[C@@H](NC(=O)OC(C)(C)C)C(C)(C)C)C2(C)C)C(=O)C(=O)NCC(=O)c1ccccc1 (some centres unmarked)
11 | > 1000 nM | CC1(C)[C@@H]2[C@@H](C(=O)NC(CC3CC3)C(=O)C(N)=O)N(C(=O)CC3CCCCC3)C[C@@H]21 (some centres unmarked)

Row | Compound | Ki
12 | CCCC(NC(=O)[C@@H]1[C@@H]2[C@H](CN1C(=O)[C@@H](NC(=O)OC(C)(C)C)C1CCCC1)C2(C)C)C(=O)C(=O)NCC(=O)N[C@H](C(=O)N(C)C)c1ccccc1 (stereo partly drawn) (Boc-[Gly(cPent)][Pro(3R,4S-CMe2)][X2]G[Phg]-NMe2) | 1 to 100 nM

same assay, conditions: Table 6; HCV NS3/NS4A protease, 30° C., pH 6.5; read-out: Ki*

Row | Ki | Compound
13 | 1 to 100 nM | C=CCNC(=O)C(=O)C(CCC)NC(=O)[C@@H]1[C@@H]2[C@H](CN1C(=O)[C@@H](NC(=O)OC1CCC[C@@H]1C)C1CCCC1)C2(C)C (some centres unmarked)
14 | 1 to 100 nM | CN(C)C(=O)[C@@H](NC(=O)CNC(=O)C(=O)C(CC1COC1)NC(=O)[C@@H]1[C@H]2CC(C)(C)O[C@H]2CN1C(=O)[C@@H](NC(=O)OC(C)(C)C)C1CCCCC1)c1ccccc1 (some centres unmarked)
15 | 1 to 100 nM | CC1(NC(=O)N[C@H](C(=O)N2C[C@H]3[C@@H]([C@H]2C(=O)NC(CC2CC2(F)F)C(=O)C(N)=O)C3(C)C)C(C)(C)C)CCCCC1 (some centres unmarked)
16 | 101 to 1000 nM | CC(F)(F)CC(NC(=O)[C@@H]1[C@@H]2[C@H](CN1C(=O)[C@@H](NC(=O)OC(C)(C)C)C1CCCCC1)C2(C)C)C(=O)C(N)=O (some centres unmarked)
17 | 101 to 1000 nM | Cc1ccc(S(=O)(=O)CNC(=O)C(=O)C(CC2CC2)NC(=O)[C@@H]2[C@@H]3[C@H](CN2C(=O)[C@@H](NC(=O)NC(C)(C)C)C2CCCCC2)C3(C)C)cc1 (some centres unmarked)
18 | 1 to 100 nM | C=CCCC(NC(=O)[C@@H]1[C@@H]2[C@H](CN1C(=O)[C@@H](NC(=O)OC(C)(C)C)C1CCC(=O)CC1)C2(C)C)C(=O)C(=O)NCCC(=O)OC(C)(C)C (some centres unmarked)
19 | 1 to 100 nM | CCCC(NC(=O)[C@@H]1[C@@H]2[C@H](CN1C(=O)[C@@H](NC(=O)OC(C)(C)C)C1CCCCC1)C2(C)C)C(=O)C(=O)NCC(=O)OC(C)(C)c1ccccc1 (some centres unmarked)
20 | 101 to 1000 nM | COC(=O)C1(NC(=O)N[C@H](C(=O)N2C[C@H]3[C@@H]([C@H]2C(=O)NC(CC2CCC2)C(=O)C(N)=O)C3(Cl)Cl)C2CCCCC2)CCCC1 (some centres unmarked)
21 | 101 to 1000 nM | CC(=O)OCC(C)(C)NC(=O)N[C@H](C(=O)N1C[C@H]2[C@@H]([C@H]1C(=O)NC(CC1CCC1)C(=O)C(N)=O)C2(Cl)Cl)C(C)(C)C (some centres unmarked)

Row | Compound | Ki
22 | CN(C)C(=O)C(NC(=O)CNC(=O)C(=O)C(CC1CC1)NC(=O)[C@@H]1[C@@H]2[C@H](CN1C(=O)[C@@H](NC(=O)NC1(C)CCCCC1)C(C)(C)C)C2(C)C)c1ccccc1 (stereo partly drawn) ({X88-CO}-[Tle][Pro(3R,4S-CMe2)][X8]G[ξPhg]-NMe2) | 1 to 100 nM
23 | CN(C)C(=O)[C@@H](NC(=O)CNC(=O)C(=O)C(CCCC(F)(F)F)NC(=O)[C@@H]1[C@@H]2[C@H](CN1C(=O)[C@@H](NC(=O)OC(C)(C)C)C(C)(C)C)C2(C)C)c1ccccc1 (stereo partly drawn) (Boc-[Tle][Pro(3R,4S-CMe2)][X50]G[Phg]-NMe2) | 1 to 100 nM

*1 amine or outer side, *2 acyl side, *3 side chain or, on linkers, in order; H or OH if unused. Where a SMILES comes first, the peptide text is derived from it. [ ]: non-standard residue; d: D form. The star is where a group is joined. ξ: configuration not given here. Pro(3R,4S-CMe2) = CC1(C)[C@@H]2[C@@H](C(=O)O)NC[C@@H]21; X50 = O=C(C(=O)[*:2])C(CCCC(F)(F)F)N[*:1]; X8 = O=C(C(=O)[*:2])C(CC1CC1)N[*:1]; Gly(cPent) = N[C@H](C(=O)O)C1CCCC1; X2 = CCCC(N[*:1])C(=O)C(=O)[*:2]; Phg = N[C@H](C(=O)O)c1ccccc1; Tle = CC(C)(C)[C@H](N)C(=O)O; ξPhg = NC(C(=O)O)c1ccccc1; Boc = CC(C)(C)OC(=O)*; CO = O=C([*:1])[*:2]; X88 = CC1(N*)CCCCC1
